According to patent US8067379B2, “Sulfur compounds as inhibitors of hepatitis C virus NS3 serine protease” (Schering Corporation, priority 2004, dated 2011):

biological target: Recombinant heterodimeric HCV NS3/NS4A protease (strain 1a) (Hepatitis C virus genotype 1a, UniProt P27958); test: Spectrophotometric assay for HCV serine protease inhibitory activity (chromogenic ester substrates); format: biochemical; conditions: Table 3, sulfide compounds; HCV serine protease; read-out: Ki* range
From the text: Assay for HCV Protease Inhibitory Activity:
Spectrophotometric Assay: Spectrophotometric assay for the HCV serine protease can be performed on the inventive compounds by following the procedure described by R. Zhang et al, Analytical Biochemistry, 270 (1999) 268-275, the disclosure of which is incorporated herein by reference. The assay based on the proteolysis of chromogenic ester substrates is suitable for the continuous monitoring of HCV NS3 protease activity. The substrates are derived from the P side of the NS5A-NS5B junction sequence (Ac-DTEDWX(Nva), where X=A or P) whose C-terminal carboxyl groups are esterified with one of four different chromophoric alcohols (3- or 4-nitrophenol, 7-hydroxy-4-methyl-coumarin, or 4-phenylazophenol).
Protein concentrations are determined by the Biorad dye method using recombinant HCV protease standards previously quantified by amino acid analysis. Prior to assay initiation, the enzyme storage buffer (50 mM sodium phosphate pH 8.0, 300 mM NaCl, 10% glycerol, 0.05% lauryl maltoside and 10 mM DTT) is exchanged for the assay buffer (25 mM MOPS pH 6.5, 300 mM NaCl, 10% glycerol, 0.05% lauryl maltoside, 5 μM EDTA and 5 μM DTT) utilizing a Biorad Bio-Spin P-6 prepacked column.
Protease Assay: HCV protease assays are performed at 30° C. using a 200 μl reaction mix in a 96-well microtiter plate. Assay buffer conditions (25 mM MOPS pH 6.5, 300 mM NaCl, 10% glycerol, 0.05% lauryl maltoside, 5 μM EDTA and 5 μM DTT) are optimized for the NS3/NS4A heterodimer (D. L. Sali et al, ibid.)). […] Fifty μls of prewarmed protease (12 nM, 30° C.) in assay buffer, is then used to initiate the reaction (final volume 200 μl). The plates are monitored over the length of the assay (60 minutes) for change in absorbance at the appropriate wavelength (340 nm for 3-Np and HMC, 370 nm for PAP, and 400 nm for 4-Np) using a Spectromax Plus microtiter plate reader equipped with a monochrometer (acceptable results can be obtained with plate readers that utilize cutoff filters). Proteolytic cleavage of the ester linkage between the Nva and the chromophore is monitored at the appropriate wavelength against a no enzyme blank as a control for non-enzymatic hydrolysis. The evaluation of substrate kinetic parameters is performed over a 30-fold substrate concentration range (˜6-200 μM). Initial velocities are determined using linear regression and kinetic constants are obtained by fitting the data to the Michaelis-Menten equation using non-linear regression analysis (Mac Curve Fit 1.1, K. Raner). Turnover numbers (kcat) are calculated assuming the enzyme is fully active.
Evaluation of Inhibitors and Inactivators: The inhibition constants (Ki) for the competitive inhibitors Ac-D-(D-Gla)-L-l-(Cha)-C-OH (27), Ac-DTEDWA(Nva)-OH and Ac-DTEDVVP(Nva)-OH are determined experimentally at fixed concentrations of enzyme and substrate by plotting vo/vi vs. inhibitor concentration ([l]o) according to the rearranged Michaelis-Menten equation for competitive inhibition kinetics: vo/vi=1+[l]o/(Ki (1+[S]o/Km)), where vo is the uninhibited initial velocity, vi is the initial velocity in the presence of inhibitor at any given inhibitor concentration ([l]o) and [S]o is the substrate concentration used.

SMILES | Ki
CC(C)(C)[C@H](NC(=O)NC1(CSc2ccccc2)CCCCC1)C(=O)N1C[C@H]2[C@@H]([C@H]1C(=O)NC(CC1CC1)C(=O)C(N)=O)C2(C)C (stereo partly drawn) [Compound 102] | < 75 nM
CC(C)[C@@H](CSc1ccccc1)NC(=O)N[C@H](C(=O)N1C[C@H]2[C@@H]([C@H]1C(=O)NC(CC1CCC1)C(=O)C(N)=O)C2(C)C)C(C)(C)C (stereo partly drawn) [Compound 103] | 75 to 250 nM
CC(C)[C@@H](CSc1ccccc1)NC(=O)N[C@H](C(=O)N1C[C@H]2[C@@H]([C@H]1C(=O)NC(CC1CC1)C(=O)C(N)=O)C2(C)C)C(C)(C)C (stereo partly drawn) [Compound 104] | < 75 nM
C=CCNC(=O)C(=O)C(CCCC)NC(=O)[C@@H]1[C@@H]2[C@H](CN1C(=O)[C@@H](NC(=O)N[C@H](CSCc1ccccc1)C(C)C)C(C)(C)C)C2(C)C (stereo partly drawn) [Compound 105] | > 250 nM
CC(C)[C@@H](CSCc1ccccc1)NC(=O)N[C@H](C(=O)N1C[C@H]2[C@@H]([C@H]1C(=O)NC(CC1CCC1)C(=O)C(N)=O)C2(C)C)C(C)(C)C (stereo partly drawn) [Compound 106] | 75 to 250 nM
C#CCCC(NC(=O)[C@@H]1[C@@H]2[C@H](CN1C(=O)[C@@H](NC(=O)NC1(CSc3ccccc3)CCCCC1)C(C)(C)C)C2(C)C)C(=O)C(N)=O (stereo partly drawn) [Compound 107] | < 75 nM
CSCC1(NC(=O)N[C@H](C(=O)N2C[C@H]3[C@@H]([C@H]2C(=O)NC(CC2CC2)C(=O)C(N)=O)C3(C)C)C(C)(C)C)CCCCC1 (stereo partly drawn) [Compound 108] | < 75 nM
CC(C)(NC(=O)N[C@H](C(=O)N1C[C@H]2[C@@H]([C@H]1C(=O)NC(CC1CC1)C(=O)C(N)=O)C2(C)C)C(C)(C)C)SCc1ccccc1 (stereo partly drawn) [Compound 109] | < 75 nM
CC(C)(C)[C@H](NC(=O)NC1(CSc2ccccc2)CC1)C(=O)N1C[C@H]2[C@@H]([C@H]1C(=O)NC(CC1CC1)C(=O)C(N)=O)C2(C)C (stereo partly drawn) [Compound 110] | < 75 nM
C#CCCC(NC(=O)[C@@H]1[C@@H]2[C@H](CN1C(=O)[C@@H](NC(=O)NC1(CSc3ccccc3)CC1)C(C)(C)C)C2(C)C)C(=O)C(=O)NCC=C (stereo partly drawn) [Compound 111] | 75 to 250 nM
CC(C)(C)[C@H](NC(=O)NC1(CSc2ccccc2)CCCC1)C(=O)N1C[C@H]2[C@@H]([C@H]1C(=O)NC(CC1CC1)C(=O)C(N)=O)C2(C)C (stereo partly drawn) [Compound 112] | < 75 nM
CC(C)(C)[C@H](NC(=O)NC1(CCSc2ccccc2)CCCCC1)C(=O)N1C[C@H]2[C@@H]([C@H]1C(=O)NC(CC1CC1)C(=O)C(N)=O)C2(C)C (stereo partly drawn) [Compound 113] | < 75 nM
CSCC(C)(C)NC(=O)N[C@H](C(=O)N1C[C@H]2[C@@H]([C@H]1C(=O)NC(CC1CC1)C(=O)C(N)=O)C2(C)C)C(C)(C)C (stereo partly drawn) [Compound 114] | < 75 nM
CC(C)(C)[C@H](NC(=O)NC1(CSCc2ccccc2)CCCCC1)C(=O)N1C[C@H]2[C@@H]([C@H]1C(=O)NC(CC1CC1)C(=O)C(N)=O)C2(C)C (stereo partly drawn) [Compound 115] | < 75 nM
CSCCC1(NC(=O)N[C@H](C(=O)N2C[C@H]3[C@@H]([C@H]2C(=O)NC(CC2CC2)C(=O)C(N)=O)C3(C)C)C(C)(C)C)CCCCC1 (stereo partly drawn) [Compound 116] | < 75 nM
CCSCC1(NC(=O)N[C@H](C(=O)N2C[C@H]3[C@@H]([C@H]2C(=O)NC(CC2CC2)C(=O)C(N)=O)C3(C)C)C(C)(C)C)CCCCC1 (stereo partly drawn) [Compound 117] | < 75 nM
CC(C)(C)SCC1(NC(=O)N[C@H](C(=O)N2C[C@H]3[C@@H]([C@H]2C(=O)NC(CC2CC2)C(=O)C(N)=O)C3(C)C)C(C)(C)C)CCCCC1 (stereo partly drawn) [Compound 118] | < 75 nM
C=CCNC(=O)C(=O)C(CC1CC1)NC(=O)[C@@H]1[C@@H]2[C@H](CN1C(=O)[C@@H](NC(=O)NC1(CSCC)CCCCC1)C(C)(C)C)C2(C)C (stereo partly drawn) [Compound 119] | 75 to 250 nM
C=CCNC(=O)C(=O)C(CC1CC1)NC(=O)[C@@H]1[C@@H]2[C@H](CN1C(=O)[C@@H](NC(=O)NC1(CSC(C)(C)C)CCCCC1)C(C)(C)C)C2(C)C (stereo partly drawn) [Compound 120] | > 250 nM
C#CCCC(NC(=O)[C@@H]1[C@@H]2[C@H](CN1C(=O)[C@@H](NC(=O)NC1(CSCC)CCCCC1)C(C)(C)C)C2(C)C)C(=O)C(=O)NCC=C (stereo partly drawn) [Compound 121] | < 75 nM
C#CCCC(NC(=O)[C@@H]1[C@@H]2[C@H](CN1C(=O)[C@@H](NC(=O)NC1(CSC(C)(C)C)CCCCC1)C(C)(C)C)C2(C)C)C(=O)C(=O)NCC=C (stereo partly drawn) [Compound 122] | < 75 nM
CC(C)(C)[C@H](NC(=O)NC1(CSCc2ccco2)CCCCC1)C(=O)N1C[C@H]2[C@@H]([C@H]1C(=O)NC(CC1CC1)C(=O)C(N)=O)C2(C)C (stereo partly drawn) [Compound 123] | < 75 nM

same assay, conditions: Table 3A; class symbols; read-out: Ki* Range

SMILES | Ki
C=CCNC(=O)C(=O)[C@H](CC1CC1)NC(=O)[C@@H]1[C@@H]2[C@H](CN1C(=O)[C@@H](NC(=O)NC1(C3CCCCS3(=O)=O)CCCCC1)C1(C)CCCCC1)C2(C)C (single isomer, unassigned) [Compound 792] | < 75 nM
C=CCNC(=O)C(=O)C(CCCCF)NC(=O)[C@@H]1[C@@H]2[C@H](CN1C(=O)[C@@H](NC(=O)NC1(CS(=O)(=O)C(C)(C)C)CCCCC1)C1(C)CCCCC1)C2(C)C (stereo in doubt) [Compound 455] | < 75 nM
C=CCNC(=O)C(=O)C(CCCC(F)F)NC(=O)[C@@H]1[C@@H]2[C@H](CN1C(=O)[C@@H](NC(=O)NC1(CS(=O)(=O)C(C)(C)C)CCCCC1)C1(C)CCCCC1)C2(C)C (stereo in doubt) [Compound 458] | < 75 nM
C=CCNC(=O)C(=O)C(CC1CC1)NC(=O)[C@@H]1[C@@H]2[C@H](CN1C(=O)[C@@H](NC(=O)N[C@]1(CS(=O)(=O)C(C)(C)C)CC[C@H](C(C)C)CC1)C1(C)CCCCC1)C2(C)C (stereo in doubt) [Compound 621] | > 250 nM

same assay, conditions: Table 5; read-out: Ki*

SMILES | Ki
C=CCNC(=O)C(=O)C(CC1CC1)NC(=O)[C@@H]1C2[C@H](CN1C(=O)[C@@H](NC(=O)NC1(CS(=O)(=O)C(C)(C)C)CCCCC1)C1(C)CCCCC1)C2(C)C (stereo partly drawn) | 10 nM
C=CCNC(=O)C(=O)C(CC1CC1)NC(=O)[C@@H]1C2[C@H](CN1C(=O)[C@@H](NC(=O)NC1(CS(=O)(=O)C(C)(C)C)CCCCC1)C(C)(C)C)C2(C)C (stereo partly drawn) | 14 nM
C=CCNC(=O)C(=O)C(CC1CC1)NC(=O)[C@@H]1C2[C@H](CN1C(=O)[C@@H](NC(=O)NC1(CS(=O)(=O)C(C)(C)C)CCCCC1)C1CCCCC1)C2(C)C (stereo partly drawn) | 4.1 nM
C=CCNC(=O)C(=O)C(CC1CC1)NC(=O)[C@@H]1C2[C@H](CN1C(=O)[C@@H](NC(=O)NC1(CS(=O)(=O)C(C)(C)CC)CCCCC1)C1(C)CCCCC1)C2(C)C (stereo partly drawn) | 9 nM
C=CCNC(=O)C(=O)C(CC1CC1)NC(=O)[C@@H]1C2[C@H](CN1C(=O)[C@@H](NC(=O)NC1(CS(=O)(=O)C(C)(C)CC)CCCCC1)C(C)(C)C)C2(C)C (stereo partly drawn) | 14 nM
C=CCNC(=O)C(=O)C(CCCC)NC(=O)[C@@H]1C2[C@H](CN1C(=O)[C@@H](NC(=O)NC1(CS(=O)(=O)C(C)(C)C)CCCCC1)C(C)(C)C)C2(C)C (stereo partly drawn) | 11 nM
C#CCCC(NC(=O)[C@@H]1C2[C@H](CN1C(=O)[C@@H](NC(=O)NC1(CS(=O)(=O)C(C)(C)C)CCCCC1)C1(C)CCCCC1)C2(C)C)C(=O)C(=O)NCCC (stereo partly drawn) | 4 nM
C#CCCC(NC(=O)[C@@H]1C2[C@H](CN1C(=O)[C@@H](NC(=O)NC1(CS(=O)(=O)C(C)(C)C)CCCCC1)C1(C)CCCCC1)C2(C)C)C(=O)C(=O)NC1CC1 (stereo partly drawn) | 6 nM
CCCC[C@H](NC(=O)[C@@H]1C2[C@H](CN1C(=O)[C@@H](NC(=O)NC1(CS(=O)(=O)C(C)(C)C)CCCCC1)C1(C)CCCCC1)C2(C)C)C(=O)C(=O)NC1CC1 (stereo partly drawn) | 5 nM
CC1([C@H](NC(=O)NC2(CS(=O)(=O)C(C)(C)C)CCCCC2)C(=O)N2C[C@H]3C([C@H]2C(=O)N[C@@H](CCC2CC2)C(=O)C(=O)NC2CC2)C3(C)C)CCCCC1 (stereo partly drawn) | 3 nM
